{"source": "PubChem BioAssay AID360", "about": "(National Center for Advancing Translational Sciences (NCATS), 2006)", "note": "Among all 48,000 compounds or so, about 550 (1.1%) were called active. Not shown: some 4% with an inconclusive outcome. No stated cut-off is given here; in the data, active means potency below about 15 µM; inconclusive means mostly about 16 µM to 33 µM; inactive means weaker than that. Some of the results follow. Potency means the concentration at half of the fitted maximal effect.", "data": [{"target": "Lysosomal acid glucosylceramidase (Homo sapiens) (UniProt P04062)", "sequence (P04062 whole entry, looked up)": "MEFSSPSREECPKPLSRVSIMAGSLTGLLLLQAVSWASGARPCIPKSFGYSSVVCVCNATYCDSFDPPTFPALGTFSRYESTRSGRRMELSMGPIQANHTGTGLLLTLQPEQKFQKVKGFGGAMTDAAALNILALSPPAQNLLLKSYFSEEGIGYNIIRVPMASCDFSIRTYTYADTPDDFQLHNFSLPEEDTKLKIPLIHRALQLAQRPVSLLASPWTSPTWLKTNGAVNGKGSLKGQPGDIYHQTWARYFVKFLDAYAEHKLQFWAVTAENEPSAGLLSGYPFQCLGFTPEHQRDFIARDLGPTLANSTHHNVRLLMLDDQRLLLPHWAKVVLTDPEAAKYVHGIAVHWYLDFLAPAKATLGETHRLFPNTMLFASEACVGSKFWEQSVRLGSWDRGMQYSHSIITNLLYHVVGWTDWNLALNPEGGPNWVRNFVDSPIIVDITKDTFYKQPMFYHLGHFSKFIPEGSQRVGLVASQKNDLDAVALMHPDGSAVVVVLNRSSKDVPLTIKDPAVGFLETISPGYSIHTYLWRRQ", "assay": "Glucocerebrosidase;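 further: the screen sought inhibitors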", "details": "purified enzyme, resorufin glucoside fluorescence (screen aimed at inhibitors), 20 min", "method_in_brief": "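Compounds titrated against 0.2 nM normal enzyme, 30 uM resorufin beta-D-glucopyranoside substrate, citrate/phosphate buffer with taurocholate and tween-20, pH 5.9. Reaction ran 20 min at room temperature; fluorescence (Ex 548/Em 600) gave AC50.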", "values": [{"smiles": "CCNc1nnc(-c2ccc(C)cc2)o1", "Potency": "inactive: > 76.9 µM"}, {"smiles": "Cc1nc2ccc(Nc3nc4cc(S(=O)(=O)N5CCOCC5)ccc4o3)cc2s1", "Potency": "inactive: > 76.9 µM"}, {"smiles": "O=C(CCc1nc2ccccc2c(=O)[nH]1)N1CCN(C/C=C/c2ccccc2)CC1", "Potency": "inactive: > 76.9 µM"}, {"smiles": "O=C(O)CCn1c(=O)c2ccccc2c2ccccc2c1=O", "Potency": "inactive: > 76.9 µM"}, {"smiles": "COc1ccccc1N(CC(=O)NCc1ccccc1)S(C)(=O)=O", "Potency": "inactive: > 76.9 µM"}, {"smiles": "O=C(COC(=O)C1CCN(S(=O)(=O)c2cccs2)CC1)c1cc2ccccc2o1", "Potency": "inactive: > 76.9 µM"}, {"smiles": "Cc1ccccc1CN1C(=O)CSc2ccc(C(=O)N3CCOCC3)cc21", "Potency": "inactive: > 76.9 µM"}, {"smiles": "COc1ccc(S(=O)(=O)NCc2ccco2)c2ccccc12", "Potency": "inactive: > 76.9 µM"}, {"smiles": "COc1ccc(NC(=O)Cc2nnc(SCC(=O)Nc3cc(C)ccc3OC)n2C)cc1", "Potency": "inactive: > 76.9 µM"}, {"smiles": "CCOc1cc2[nH]c(=O)n(CCCCCC(=O)NCc3ccc4c(c3)OCO4)c(=O)c2cc1OCC", "Potency": "inactive: > 76.9 µM"}, {"smiles": "CSC1=C(C#N)C(c2ccccc2Cl)C2=C(CCCC2=O)N1", "note": "(configuration not stated)", "Potency": "inactive: > 76.9 µM"}, {"smiles": "CCOCc1cnc(C)nc1NCC(=O)c1c(C)n(C)c2ccc(OC)cc12", "Potency": "inactive: > 76.9 µM"}, {"smiles": "O=C(NCC(=O)N(c1cccc(F)c1)C(C(=O)NCC1CCCO1)c1ccccc1)c1ccco1", "note": "(configuration not stated)", "Potency": "inactive: > 76.9 µM"}, {"smiles": "CC(C)Cc1cc(C(=O)O)n[nH]1", "Potency": "inactive: > 76.9 µM"}, {"smiles": "COC(=O)COc1ccc(S(=O)(=O)NC2CCCCCC2)cc1", "Potency": "inactive: > 76.9 µM"}, {"smiles": "CC(C)C[C@H](NC(=O)Nc1cccc(Cl)c1)C(=O)O", "Potency": "inactive: > 76.9 µM"}, {"smiles": "COc1ccc(C2C3=C(CC(C)(C)CC3=O)Oc3ncn4nc(-c5cccnc5)nc4c32)cc1OC", "note": "(configuration not stated)", "Potency": "inactive: > 76.9 µM"}, {"smiles": "O=C(OCC(=O)c1c[nH]c2ccccc12)c1ccco1", "Potency": "inactive: > 76.9 µM"}, {"smiles": "COC(=O)c1cc(OC)c(OC)cc1NC(=O)c1c(C)noc1C", "Potency": "inactive: > 76.9 µM"}, {"smiles": "COc1ccc(CC(=O)Nc2c3c(nn2-c2cccc(C)c2C)CS(=O)C3)cc1", "note": "(configuration not stated)", "Potency": "inactive: > 76.9 µM"}, {"smiles": "COc1ccc2[nH]c(=O)c(CN(Cc3ccc4c(c3)OCO4)C(C)=O)cc2c1", "Potency": "inactive: > 76.9 µM"}, {"smiles": "CC(C)(C)c1csc(NC2=NS(=O)(=O)c3ccccc32)n1", "Potency": "inactive: > 76.9 µM"}, {"smiles": "COc1ccc(OC)c(NC(=O)COC(=O)c2ccc(-n3cnnn3)cc2)c1", "Potency": "inactive: > 76.9 µM"}, {"smiles": "Cc1cccc(NC(=O)c2cccs2)n1", "Potency": "inactive: > 76.9 µM"}, {"smiles": "CCOC(=O)C1CCCN(C(=O)CCn2nc(-c3ccccc3)ccc2=O)C1", "note": "(configuration not stated)", "Potency": "inactive: > 76.9 µM"}, {"smiles": "O=S(=O)(Nc1cc(Cl)ccc1N1CCCCC1)c1cccs1", "Potency": "active: 15.4 µM"}, {"smiles": "O=C(CSc1nnc(Cc2cc(=O)[nH]c(=O)[nH]2)n1-c1ccccc1)N1CCCC1", "Potency": "inactive: > 76.9 µM"}, {"smiles": "COC(=O)CSc1nnc2n1C(C)(C)Cc1ccccc1-2", "Potency": "inactive: > 76.9 µM"}, {"smiles": "O=S(=O)(c1cccs1)N1CCN(C/C=C/c2ccccc2)CC1", "Potency": "inactive: > 76.9 µM"}, {"smiles": "O=C(Nc1nnc(COc2ccc(Cl)cc2)s1)c1cccs1", "Potency": "inactive: > 76.9 µM"}, {"smiles": "O=C(Cn1c(CC(=O)N2CCOCC2)nc2ccccc21)Nc1ccc2c(c1)OC(F)(F)O2", "Potency": "inactive: > 76.9 µM"}, {"smiles": "CCCCNC(=O)Nc1ccon1", "Potency": "inactive: > 76.9 µM"}, {"smiles": "COc1cc(NS(=O)(=O)c2ccc(NC(=O)COc3ccccc3C)cc2)nc(OC)n1", "Potency": "inactive: > 76.9 µM"}, {"smiles": "O=C(COc1ccccc1)Nc1ncc2c(n1)CCCC2=O", "Potency": "inactive: > 76.9 µM"}, {"smiles": "CC1CN(C(=O)CN2C(=O)c3ccccc3S2(=O)=O)CC(C)O1", "note": "(configuration not stated)", "Potency": "inactive: > 76.9 µM"}, {"smiles": "Cc1cc(Cl)ccc1OCC(=O)OC(C)C(=O)NC(N)=O", "note": "(configuration not stated)", "Potency": "inactive: > 76.9 µM"}, {"smiles": "CCn1c(CCNC(=O)c2cccs2)nnc1SCC(=O)c1ccc(OC)cc1", "Potency": "inactive: > 76.9 µM"}, {"smiles": "Cc1csc(SCC(=O)O)n1", "Potency": "inactive: > 76.9 µM"}, {"smiles": "COc1ccc(CCN2C(=O)c3cccnc3C2=O)cc1OC", "Potency": "inactive: > 76.9 µM"}, {"smiles": "CC1=Nn2c(nc(-c3ccccc3)c2-c2ccccc2)N(CC(N)=O)C(=O)C1", "Potency": "inactive: > 76.9 µM"}, {"smiles": "Cc1cc(NC(=O)CCOc2ccccc2)no1", "Potency": "inactive: > 76.9 µM"}, {"smiles": "CCN(CC)C(=O)c1ccc(C)c(Br)c1", "Potency": "inactive: > 76.9 µM"}, {"smiles": "Cc1c(N2C(=O)c3ccccc3C2=O)c(=O)n(-c2ccccc2)n1C", "Potency": "inactive: > 76.9 µM"}, {"smiles": "N#Cc1cnn(-c2ccccc2)c1N", "Potency": "inactive: > 76.9 µM"}, {"smiles": "CCN(CC)c1ccc(NC(=O)Nc2ccc(C(C)=O)cc2)cc1", "Potency": "inactive: > 76.9 µM"}, {"smiles": "Cc1ccc(C2SCC(=O)N2Cc2cn3ccsc3n2)o1", "note": "(configuration not stated)", "Potency": "inactive: > 76.9 µM"}, {"smiles": "CCOC(=O)N1CCC(NC(=O)Cn2ncn3c(cc4sc(CC)cc43)c2=O)CC1", "Potency": "inactive: > 76.9 µM"}, {"smiles": "CN1CCN(c2ccc(NC(=O)Cc3ccccc3)cc2)CC1", "Potency": "inactive: > 76.9 µM"}, {"smiles": "CCOC(=O)c1sc(=N)n(-c2ccc(OC)cc2)c1C", "Potency": "inactive: > 76.9 µM"}, {"smiles": "CC(=O)c1oc2ccccc2c1NC(=O)COC(=O)c1ccc(-n2nc(C)cc2C)cc1", "Potency": "inactive: > 76.9 µM"}, {"smiles": "CCn1c(SCC(=O)NCCc2ccc(F)cc2)nnc1-c1cccs1", "Potency": "inactive: > 76.9 µM"}, {"smiles": "COC(=O)Nc1ccc(S(=O)(=O)N2CCCc3ccccc32)cc1", "Potency": "inactive: > 76.9 µM"}, {"smiles": "COc1ccc(-c2cc(=O)oc3c(C)c(OCc4nn[nH]n4)ccc23)cc1", "Potency": "inactive: > 76.9 µM"}, {"smiles": "CNc1oc(Cc2ccccc2)nc1S(=O)(=O)c1ccc(Cl)cc1", "Potency": "inactive: > 76.9 µM"}, {"smiles": "COc1cccc(C2=NOC(C(=O)Nc3cccnc3)C2)c1", "note": "(configuration not stated)", "Potency": "inactive: > 76.9 µM"}, {"smiles": "Cc1cc(N)ccc1-n1c(C)ccc1C", "Potency": "inactive: > 76.9 µM"}, {"smiles": "CC(=O)OCc1cc(=O)n(C)c(=O)n1C", "Potency": "inactive: > 76.9 µM"}, {"smiles": "COCCCNC(=O)CCn1c(=O)c2ccccc2n(CC(=O)Nc2c(C)cccc2C)c1=O", "Potency": "inactive: > 76.9 µM"}, {"smiles": "Cn1c(SCC(=O)N2CCCc3ccccc32)nnc1-c1ccco1", "Potency": "inactive: > 76.9 µM"}, {"smiles": "Cc1ccc(S(=O)(=O)NC(CC(=O)NCc2ccco2)c2ccco2)cc1", "note": "(configuration not stated)", "Potency": "inactive: > 76.9 µM"}, {"smiles": "O=C(CN1C(=O)C2CC=CCC2C1=O)OCCN1C(=O)c2ccccc2C1=O", "note": "(configuration not stated)", "Potency": "inactive: > 76.9 µM"}, {"smiles": "Cc1cccc(NC(=O)Nc2cccc(C)n2)n1", "Potency": "inactive: > 76.9 µM"}, {"smiles": "COc1ccc(-c2nc(-c3ccc(NC(=O)c4ccc(Br)o4)cc3)no2)cc1OC", "Potency": "inactive: > 76.9 µM"}, {"smiles": "COc1ccc(N(CC(=O)O)S(=O)(=O)c2cccnc2)cc1", "Potency": "inactive: > 76.9 µM"}, {"smiles": "O=C(NCc1nnc(SC/C=C/c2ccccc2)o1)c1ccco1", "Potency": "inactive: > 76.9 µM"}, {"smiles": "Cc1ccccc1-n1c(=O)c2ccccc2n2c(=O)[nH]nc12", "Potency": "inactive: > 76.9 µM"}, {"smiles": "COc1ccc(S(=O)(=O)N2CCC(C(=O)N3CCCCCC3)CC2)cc1", "Potency": "inactive: > 76.9 µM"}, {"smiles": "O=C(O)c1ccc2cccc(Cl)c2c1O", "Potency": "inactive: > 76.9 µM"}, {"smiles": "O=C(c1ccc(=O)oc1)N1CCCc2ccccc21", "Potency": "inactive: > 76.9 µM"}, {"smiles": "CCN(CC)c1ccc(NC(=O)Nc2cccc(C(C)=O)c2)cc1", "Potency": "inactive: > 76.9 µM"}, {"smiles": "CCCN1Cc2cccc(C(=O)Nc3ccc4c(c3)OCO4)c2C1=O", "Potency": "inactive: > 76.9 µM"}, {"smiles": "COc1cc(C(=O)Nc2cnc(NC(=O)C(C)C)cc2C)cc(OC)c1OC", "Potency": "inactive: > 76.9 µM"}, {"smiles": "Cc1ccc(C)n1-c1ccncc1", "Potency": "inactive: > 76.9 µM"}, {"smiles": "O=c1oc2ccccc2n1CCn1c2ccccc2c2nc3ccccc3nc21", "Potency": "inactive: > 76.9 µM"}, {"smiles": "Cc1ccc(SCc2cc(=O)[nH]c(N3CCOCC3)n2)cc1", "Potency": "inactive: > 76.9 µM"}, {"smiles": "COc1cccc(NC(=O)C2C3C=CC4(O3)C2C(=O)N(C2CC2)C4C(=O)NC2CCCCC2C)c1", "note": "(configuration not stated)", "Potency": "inactive: > 76.9 µM"}, {"smiles": "CCc1nn(CC(=O)NCCCN(Cc2ccccc2)C(C)C)c(=O)c2cc3sccc3n12", "Potency": "inactive: > 76.9 µM"}, {"smiles": "CC(=O)NCCOc1nc(N(C)C)nc(N(C)C)n1", "Potency": "inactive: > 76.9 µM"}, {"smiles": "O=C(O)c1cccc(Cn2cc(Cl)cn2)c1", "Potency": "inactive: > 76.9 µM"}, {"smiles": "C=CCNC(=O)C(C)Sc1ccc(Cl)cc1", "note": "(configuration not stated)", "Potency": "inactive: > 76.9 µM"}, {"smiles": "CCCCC(=O)Nc1ccc(N2CCN(S(C)(=O)=O)CC2)cc1", "Potency": "inactive: > 76.9 µM"}, {"smiles": "S=c1[nH]nc(Cc2ccccc2)n1-c1ccccc1", "Potency": "inactive: > 76.9 µM"}, {"smiles": "O=C(NCc1cccs1)C(Cc1ccccc1)NS(=O)(=O)c1cccs1", "note": "(configuration not stated)", "Potency": "inactive: > 76.9 µM"}, {"smiles": "COc1cc(C(Nc2ccc3c(c2)OCO3)C(=O)NC2CCCCC2)cc(OC)c1OC", "note": "(configuration not stated)", "Potency": "inactive: > 76.9 µM"}, {"smiles": "CC(C)CCNc1ncnc2c1nnn2Cc1ccccc1Cl", "Potency": "inactive: > 76.9 µM"}, {"smiles": "COCCn1c(=O)[nH]c2cc(C(=O)NCC3CCCO3)ccc2c1=O", "note": "(configuration not stated)", "Potency": "inactive"}, {"smiles": "Cc1ccc2c(c1)cc(CN(Cc1ccc3c(c1)OCO3)C(=O)c1cnccn1)c1nnnn12", "Potency": "inactive: > 76.9 µM"}, {"smiles": "COc1cc2c(cc1OC)CN(S(=O)(=O)c1ccc3c(c1)OCCO3)CC2", "Potency": "inactive: > 76.9 µM"}, {"smiles": "CCCSc1nc2c(c(=O)[nH]c(=O)n2C)n1C", "Potency": "inactive: > 76.9 µM"}, {"smiles": "O=C(CSc1nc(O)c(Cc2ccccc2F)c(=O)[nH]1)N1CCCCCC1", "Potency": "inactive: > 76.9 µM"}, {"smiles": "Cc1cc(S(=O)(=O)Nc2ccccc2C)ccc1F", "Potency": "inactive: > 76.9 µM"}, {"smiles": "C=CCn1cc(Cl)c(=O)n(CC=C)c1=O", "Potency": "inactive: > 76.9 µM"}]}]}
